Experimental data as given in PubChem BioAssay AID588647 (Sanford-Burnham Center for Chemical Genomics, 2011).
The source holds more than one record for some entries. This list holds those alone. The source may hold further records. Values that stand side by side are repeats across runs, samples, wells, individuals or studies. A tag in brackets gives the origin of a value. Letters count within one entry.

target: intestinal alkaline phosphatase (Mus musculus); test: mouse IAP inhibition by analogs – biochemical, luminescence, set 2, SAR follow-up (AID 588647); conditions: purified mouse IAP, luminescent substrate read-out

SMILES	IC50
COc1ccc(CNC(=O)CCCNS(=O)(=O)c2ccc3[nH]c(=O)oc3c2)c(OC)c1	3.6 µM [sample A] and 37 µM [sample B]
O=C(CCNS(=O)(=O)c1ccc2[nH]c(=O)oc2c1)NCCc1ccc2c(c1)OCO2	5 µM [sample A] and 52 µM [sample B] and 19 µM [sample C]
O=C(CCNS(=O)(=O)c1ccc2[nH]c(=O)oc2c1)NCc1ccc2c(c1)OCO2	11 µM [sample A] and 2.6 µM [sample B] and 44 µM [sample C]
